According to the supplement of paper PMC9446081:
Among all 39,000 compounds or so, about 220 (0.56%) showed activity. The list shows a part of the results.

Each compound was assayed on Escherichia coli K-12 BW25113 (assay: relative growth (OD600 normalised to plate interquartile mean) (fraction); higher = less growth inhibition, active = 0.2 or less). Details: 50 µM; LB; incubation time: overnight (16-24 h).
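Further: static incubation at 37 °C against the wild-type strain, values averaged over two biological replicates.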

SMILES | relative growth
C[C@@H]1CN([C@@H](C)CO)C(=O)c2cc(NC(=O)Cc3cn(C)c4ccccc34)ccc2O[C@H]1CN(C)Cc1ccc(Cl)c(Cl)c1 | inactive: 1
O=C1CO[C@H]2CN(C(=O)COc3ccccc3)C[C@@H]2N1 | inactive: 0.99
C[C@@H]1CN([C@H](C)CO)C(=O)c2cc(NC(=O)CCC(F)(F)F)ccc2O[C@@H]1CN(C)S(=O)(=O)c1cn(C)cn1 | inactive: 0.971
Cn1c(=O)n2n(c1=O)[C@H](C1CC1)C=C1CN3[C@@H]([C@H](Cc4ccccc4)OC(=O)[C@@H]3Cc3ccc(N=[N+]=[N-])cc3)[C@@H]12 | inactive: 1.01
Cc1nc2c(C)cc(N)cn2n1 | inactive: 1.01
CCCc1c(SCCCOc2ccc(C(C)=O)c(OCCCC(=O)O)c2CCC)ccc(C(C)=O)c1O | inactive: 0.897
Cc1ccc(S(=O)(=O)Nc2cccc3c2O[C@H](CN(C)S(=O)(=O)c2cccs2)[C@@H](C)CN([C@H](C)CO)C3=O)cc1 | inactive: 0.969
C[C@@H]1CCCCO[C@@H](CN(C)S(=O)(=O)c2ccc(Cl)cc2)[C@@H](C)CN([C@H](C)CO)C(=O)c2cc(NC(=O)CCCCCC(=O)Nc3ccccc3N)ccc2O1 | inactive: 0.956
CCCNC(=O)N(C)C[C@@H]1Oc2cc(C#Cc3ccccn3)ccc2S(=O)(=O)N([C@H](C)CO)C[C@H]1C | inactive: 0.99
C[C@@H]1CN([C@@H](C)CO)S(=O)(=O)c2ccc(Br)cc2O[C@H]1CN(C)C(=O)Nc1ccc2c(c1)OCO2 | inactive: 1.01
NCc1cn2cc(Cl)ccc2n1 | inactive: 1.02
Cc1noc(C)c1S(=O)(=O)Nc1cccc2c1O[C@H](CN(C)Cc1ccncc1)[C@H](C)CN([C@@H](C)CO)C2=O | inactive: 0.993
CC(=O)OC12COC1CC(O)C1(C)C(=O)C(O)C3=C(C)C(OC(=O)C(O)C(NC(=O)OC(C)(C)C)c4ccccc4)CC(O)(C(OC(=O)c4ccccc4)C21)C3(C)C.O.O.O (centres undefined) | inactive: 0.722
O=C(N[C@H]1CC[C@@H](CCNS(=O)(=O)c2ccccc2)O[C@H]1CO)c1cnccn1 | inactive: 1.01
C[C@@H]1CN([C@@H](C)CO)S(=O)(=O)c2ccc(C#Cc3ccncc3)cc2O[C@H]1CN(C)C(=O)C1CCC1 | inactive: 1
CN1C(=O)c2cc(NC(=O)c3cnccn3)ccc2OC[C@H]2O[C@@H](CC(=O)N[C@H]3CCN(Cc4ccccc4)C3)CC[C@@H]21 | inactive: 0.998
C[C@H]1CN([C@@H](C)CO)C(=O)c2cccc(NC(=O)c3ccc(-c4nccs4)cc3)c2O[C@@H]1CN(C)S(=O)(=O)c1cn(C)cn1 | inactive: 0.986
C[C@@H]1CCCCO[C@H](CN(C)C(=O)Nc2ccc(C(F)(F)F)cc2)[C@@H](C)CN([C@H](C)CO)C(=O)c2cc(NC(=O)CCCCCC(=O)Nc3ccccc3N)ccc2O1 | inactive: 1
C[C@H](CO)N1C[C@H](C)[C@@H](CN(C)C(=O)Cc2ccncc2)Oc2cc(C#Cc3ccccc3F)ccc2S1(=O)=O | inactive: 0.999
CN[C@H]1CN(c2ccc3c(=O)c(C(=O)O)cn(-c4nccs4)c3n2)C[C@@H]1OC | active: 0.0372

SMILES | relative growth
CCOCCCNc1nc2c([nH]1)c(=O)n(C)c(=O)n2C | inactive: 1.01
COc1ccc(NC(=O)Nc2ccc3c(c2)C(=O)N([C@H](C)CO)C[C@H](C)[C@@H](CN(C)S(=O)(=O)c2ccc(Cl)cc2)OCCCC[C@H](C)O3)cc1 | inactive: 1.05
COc1ccc(S(=O)(=O)N(C)C[C@@H]2OCCCC[C@H](C)Oc3ccc(NC(=O)C4CCCCC4)cc3C(=O)N([C@H](C)CO)C[C@H]2C)cc1 | inactive: 1.03
COc1ccc(CNC(=O)C[C@@H]2CC[C@@H]3[C@@H](COc4ccc(NC(=O)C5CC5)cc4C(=O)N3C)O2)cc1 | inactive: 1
COCC(=O)Nc1ccc2c(c1)[C@@H]1C[C@@H](CC(=O)N3CCOCC3)O[C@@H](CO)[C@@H]1O2 | inactive: 1.01
COc1cccc(-c2cn(CC[C@@H]3CC[C@@H](NC(=O)CN(C)C)[C@H](CO)O3)nn2)c1 | inactive: 1
C[C@@H]1CN([C@H](C)CO)C(=O)c2cc(NC(=O)Nc3ccc(F)cc3)ccc2O[C@@H](C)CCCCO[C@@H]1CN(C)Cc1ccncc1 | inactive: 0.99
COCC(=O)N1C[C@@H](C)[C@H](OC)CN(C)C(=O)c2ccc(NC(=O)Nc3cccc(F)c3)cc2OC[C@@H]1C | inactive: 0.982
CN(C(=O)c1ccc(Cl)c(N2C(=O)CCS2(=O)=O)c1)[C@H]1CCS(=O)(=O)C1 | inactive: 1.02
CCN(CCO)CCCC(C)Nc1ccnc2cc(Cl)ccc12.O=S(=O)(O)O (centres undefined) | inactive: 1.18
C[C@H](CO)N1C[C@H](C)[C@H](CN(C)S(=O)(=O)c2ccc(F)cc2)Oc2cc(C#Cc3ccncc3)ccc2S1(=O)=O | inactive: 1.03
COc1ccc(C(=O)CC(=O)c2ccc(C(C)(C)C)cc2)cc1 | inactive: 1.09
C[C@@H]1CN([C@H](C)CO)C(=O)c2cc(Br)cnc2O[C@H]1CN(C)S(=O)(=O)c1ccc(F)cc1 | inactive: 1.03
COc1cccc(C#Cc2ccc3c(c2)O[C@@H](CN(C)C(=O)c2ccccn2)[C@@H](C)CN([C@@H](C)CO)S3(=O)=O)c1 | inactive: 1.04
COCC#Cc1cnc2c(c1)C(=O)N([C@@H](C)CO)C[C@@H](C)[C@H](CN(C)S(=O)(=O)c1cccc(OC)c1)O2 | inactive: 1.01
C[C@@H]1CN([C@@H](C)CO)C(=O)Cc2cc(NC(=O)c3ccncc3)ccc2O[C@H]1CN(C)S(=O)(=O)c1ccccc1 | inactive: 0.98
Cc1noc(C)c1S(=O)(=O)Nc1ccc2c(c1)C(=O)N([C@H](C)CO)C[C@H](C)[C@@H](CN(C)C(=O)Nc1cccc3ccccc13)OCCCC[C@H](C)O2 | inactive: 0.99
COc1ccc(-c2cn(CCNC(=O)[C@@H](NS(=O)(=O)c3ccc(C)cc3)C(C)C)nn2)cc1OC | inactive: 0.999
COc1ccc2c3c(n(c2c1)C)[C@H](CO)N(C[C@]13CCN(CC1)S(=O)(=O)C)C(=O)CN(C)C | inactive: 1.01
